# Source: PubChem BioAssay AID463173 (ICCB-Longwood Screening Facility, Harvard Medical School, 2010)
# Out of some 52,000 compounds screened, about 4,300 (8.3%) were called active. Cut-off read from the data, not from the text of the source: active = survival mostly below about 52% (no sharp cut-off); inactive = mostly above about 56%. This is one part of the list.
# System: DeltatarO mutant
# Assay: growth inhibition of S. aureus wild type versus tarO mutant, primary screen, teichoic acid synthesis inhibitors, RN4220, OD600 (AID 463173)
# Details: OD600, 18 h, hits give low values, screened at 18.75 µg/mL (by protocol)
row,Structure (SMILES),survival
1,CCN(CC)c1ccc(NC(=O)Cn2nc3c(cc2=O)CCCC3)c(C)c1,inactive: 91%
2,COc1cc(OC)cc(C(=O)N2CCN(C(=O)COc3ccc(C)cc3)CC2)c1,inactive: 57%
3,COc1cccc(-n2c(SCC(=O)Nc3ccc4c(c3)OCO4)nc3c([nH]c4ccccc43)c2=O)c1,inactive: 94%
4,COc1ccc(-n2nc(C(=O)Nc3cc(C)c(Cl)cc3OC)c3c4ccccc4n(C)c3c2=O)cc1,inactive: 94%
5,Cc1ccc(C)c(Cn2c3ccccc3c3cnn(CC(=O)NC4CCCCCC4)c(=O)c32)c1,inactive: 82%
6,Cc1ccc(-c2c3c(=O)n(C)c(=O)n(C)c3c3c(-c4cccc(C)c4)nc4ccccc4n23)cc1,inactive: 81%
7,COC(=O)c1ccccc1NC(=O)c1ccc2c(c1)CCN2S(=O)(=O)c1ccc(Cl)cc1,inactive: 69%
8,O=c1n(Cc2ccccc2)nc2n1-c1cc(Cl)ccc1OC2,inactive: 70%
9,Cc1c2cnn(-c3ccccc3)c(=O)c2c(C)n1CCCC(=O)Nc1cccc(F)c1,inactive: 70%
10,O=S(=O)(c1cccc(Cl)c1)n1c(/C=C/c2ccccc2Cl)nc2ccccc21,inactive: 68%
11,COc1ccc(CN(Cc2ccco2)C(=O)COc2ccccc2Cl)cc1,inactive: 51%
12,COc1ccc(-c2cc(OC(=O)c3cccc(Cl)c3)c3c(C)oc(C)c3c(=O)c2)cc1OC,inactive: 77%
13,COc1ccc(-n2ccn3c(CC(C)(C)CC(=O)O)nnc3c2=O)cc1,inactive: 68%
14,Cc1ccc(NC(=O)CCCn2c(=O)c3cccn3c3cccnc32)c(C)c1,inactive: 87%
15,CCC(Sc1nc2nccnc2c(=O)n1Cc1ccc(Cl)cc1)C(=O)NC1CCCCC1 (stereo not given),active: 19%
16,O=c1c(-c2cc(-c3ccccc3)nc3c2COc2ccc(Cl)cc2-3)coc2ccccc12,inactive: 75%
17,Cc1ccc(-c2cnc(C3CC3)o2)cc1S(=O)(=O)Nc1ccc(F)cc1Cl,inactive: 105%
18,CCOc1ccc(NC(=O)c2cnn3c2NC(C)=C(C(=O)Nc2ccc(Cl)cc2)C3c2ccc(OC)c(OC)c2)cc1 (stereo not given),inactive: 59%
19,COc1ccc(OC)c(N(C)S(=O)(=O)c2ccc3c(c2)NC(=O)CC(=O)N3)c1,inactive: 94%
20,COc1ccc(C)cc1NC1(c2ccccc2)C(=O)c2ccccc2C1=O,inactive: 75%
21,COc1ccc2nc(N3CCN(C(=O)CS(=O)(=O)c4ccc(C)cc4)CC3)sc2c1,inactive: 119%
22,Cc1ccccc1NC(=O)NC1(C(=O)N2CCc3ccccc32)CCCCC1,inactive: 91%
23,Cc1ccccc1NC(=O)c1sc2nc3n(c(=O)c2c1C)N=C(c1ccccc1)CS3,inactive: 88%
24,CN(C)c1ccc(NC(=O)CC(NCc2cccnc2)C(=O)O)cc1 (stereo not given),inactive: 76%
25,COc1ccc(S(=O)(=O)NC(C)(C)CO)cc1-c1nnc2c3ccccc3c(C)nn12,inactive: 96%
26,O=c1c(N2CCN(c3ccc(F)cc3)CC2)csc2ccc(F)cc12,inactive: 94%
27,CCOc1ccc(NC(=O)CSc2nc3ccccc3nc2N2CCOCC2)cc1,inactive: 87%
28,COc1ccc(CNC(=O)c2cc3cccc4c3n2CC(C)S4)cc1 (stereo not given),inactive: 83%

row,Structure (SMILES),survival
1,CCCn1c(=O)c2sccc2n2c(CCCC(=O)N3CCN(c4ccc(OC)cc4)CC3)nnc12,inactive: 90%
2,CC(C)CC(=O)Nc1cccc(-c2cn3cccnc3n2)c1,inactive: 83%
3,CC1CCN(S(=O)(=O)c2ccc3nc(Nc4cccc(F)c4)ccc3c2)CC1,inactive: 83%
4,CC(C)CNC(=O)C(=O)Nc1c2c(nn1-c1ccc(Cl)cc1)CSC2,inactive: 109%
5,CC(=O)c1ccc(NC(=O)CSc2nccn2C2CCCC2)cc1,inactive: 94%
6,Cc1cccc(N2CCN(c3ccc4cc(S(=O)(=O)N5CCC(C)CC5)ccc4n3)CC2C)c1 (stereo not given),inactive: 120%
7,CCOC(=O)CN1CCC(n2nnc3cc(C(F)(F)F)ccc32)CC1,inactive: 104%
8,CC(=O)c1ccc(NC(=O)CSc2nnc3c(n2)[nH]c2ccccc23)cc1,inactive: 119%
9,COc1ccc(CNC(=O)c2cc(-c3ccc(OC)c(OC)c3)nc3n[nH]c(-c4ccc(C)cc4)c23)cc1,inactive: 67%
10,O=C(Nc1ccc(F)cc1F)c1ccc(-n2cnc3cccnc32)cc1,inactive: 77%
11,CCOCCCNC(=O)CN1C(=O)COc2ccc(S(=O)(=O)N3CCOCC3)cc21,inactive: 107%
12,COc1ccc(-c2cc(C(F)(F)F)nc(SCCC(=O)Nc3ccc(F)cc3F)n2)cc1,inactive: 58%
13,Cc1ccc(CNC(=O)CCc2c(C)c3cc4c(C)coc4cc3oc2=O)cc1,inactive: 84%
14,COC(=O)c1c(SCC(=O)Nc2ccccc2C(F)(F)F)[nH]c2ccc(Cl)cc2c1=O,inactive: 77%
15,CC(C)c1ccc(CNC(=O)c2ccc(N3CCCC3)c(NC(=O)NCc3ccc(F)cc3)c2)cc1,active: 47%
16,CCOC(=O)C1CCN(C(c2ccc(C)cc2)c2sc3nc(-c4ccco4)nn3c2O)CC1 (stereo not given),inactive: 87%
17,CCOc1ccc(/C=C(\C#N)C(=O)Nc2sc3c(c2C(=O)OC)CCC3)cc1OC,inactive: 133%
18,Cc1cccc(Nc2cc(C)nc3nc(-c4ccccc4)nn23)c1,inactive: 95%
19,CCOC(=O)C1CCCN(CCC(=O)Nc2ccc(Br)c(C)c2)C1 (stereo not given),inactive: 87%
20,N#Cc1c(-n2ncnc2-c2ccccc2Cl)sc2c1CCCCC2,active: 26%
21,Cc1cc(C)c(OCC(=O)N/N=C/c2ccc(O)cc2O)c(Br)c1,inactive: 59%
22,O=C(CCC1N=C2c3ccccc3N=C(SCc3ccc(F)cc3)N2C1=O)N1CCN(c2ccccc2)CC1 (stereo not given),inactive: 57%
23,COc1ccc(N2CCN(C(=O)CCCCn3c(=O)[nH]c4ccsc4c3=O)CC2)cc1,inactive: 133%
24,CCOC(=O)c1ccc(N2C(=O)c3n[nH]c(-c4cccs4)c3C2c2cccc(O)c2)cc1 (stereo not given),active: -5%
25,Clc1ccc(-c2nc3ncccn3c2Nc2ccc3c(c2)OCCO3)cc1,inactive: 89%
26,Cc1cccc(NC(=O)CC2C(=O)OCCN2Cc2ccccc2)c1 (stereo not given),inactive: 177%
27,CCc1ccc(NCc2cc3cc(OC)c(OC)cc3n(CC(=O)Nc3ccc(F)cc3)c2=O)cc1,inactive: 70%
